# Over roughly 81,000 sequences, “one-hybrid fitness for binding parS DNA” has its median near -0.17; the highest 2% begin near 0.51. The list shows a part of the results.
# B1: Caulobacter ParB omega fusion; a variant is named by its letters at X, in order, B8GW30 (parent)
# chain: MESVVVGEPGMSEGRRGLGRGLSALLGEVDAAPAQAPGEQLGGSREAPIEILQRNPDQPRRTFREEDLEDLSNSIREKGVLQPILVRPSPDTAGEYQIVAGERAWRAAQRAGLKTVPIMVRELDDLAVLEIGIIENVQRADLNVLEEALSYKVLMEKFERTQENIAQTIGKSXSHVANXMRLLXLPDEVQSYLVSGELTAXHARAIAAAADPVALAKQIIEGGLSVRETEALARKAPNLSAGKSKGGRPPRVKDTDTQALESDLSSVLGLDVSIDHRGSTGTLTITYATLEQLDDLCNRLTRGI
# Variants of: B1
# Assay: one-hybrid fitness for binding parS DNA (scaled: cognate 1, non-cognate 0); higher = stronger binding
# Details: with parS DNA site
# How it was run: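 Selection: bacterial one-hybrid in E. coli USO, HIS3 reporter with the site 19 bp from the promoter, 48 hours at 37°C on M9-minus-histidine plus 0.1 mM IPTG and 5 mM 3-AT. Libraries were Caulobacter ParB with four randomised specificity codons, sequenced on Illumina before and after selection. Fitness is the rescaled log change in variant-to-wild-type read ratio, anchored to the cognate and non-cognate sites.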
row,Variant,one-hybrid fitness for binding parS DNA
1,PHRQ,≤ 0.2
2,GTNR,≤ 0.2
3,LIKR,≤ 0.2
4,SFDE,≤ 0.2
5,SKGF,≤ 0.2
6,SAPC,≤ 0.2
7,WLDT,≤ 0.2
8,MKSL,≤ 0.2
9,RLEC,0.947
10,QINL,≤ 0.2
11,QKFK,≤ 0.2
12,MKTG,≤ 0.2
13,VLTF,≤ 0.2
14,PKVY,≤ 0.2
15,LYGL,≤ 0.2
16,CKSC,≤ 0.2
17,VHVS,≤ 0.2
18,VLGD,≤ 0.2
19,MESV,≤ 0.2
20,RIQM,0.32
21,DKQV,≤ 0.2
22,RMDH,≤ 0.2
23,TFDM,≤ 0.2
24,CCIR,≤ 0.2
25,SSLI,≤ 0.2

row,Variant,one-hybrid fitness for binding parS DNA
1,MVRS,≤ 0.2
2,KDAS,≤ 0.2
3,EYNA,≤ 0.2
4,MVWS,≤ 0.2
5,MPLS,≤ 0.2
6,SAES,≤ 0.2
7,NFTH,≤ 0.2
8,YPHT,≤ 0.2
9,CSFT,≤ 0.2
10,LLRP,≤ 0.2
11,EVKP,≤ 0.2
12,AADW,≤ 0.2
13,YGPY,≤ 0.2
14,RDAL,≤ 0.2
15,RRPT,0.761
16,STNF,≤ 0.2
17,MFST,≤ 0.2
18,ITME,≤ 0.2
19,ACTI,≤ 0.2
20,NAWR,≤ 0.2
21,CGKT,≤ 0.2
22,YGLW,≤ 0.2
23,CNCT,≤ 0.2
24,QMAA,≤ 0.2
25,ALAK,≤ 0.2

row,Variant,one-hybrid fitness for binding parS DNA
1,GAQH,≤ 0.2
2,CESS,≤ 0.2
3,WSYN,≤ 0.2
4,KVSG,≤ 0.2
5,LTLA,≤ 0.2
6,MKMS,≤ 0.2
7,FVNV,≤ 0.2
8,ELNY,≤ 0.2
9,TQND,≤ 0.2
10,ATHK,≤ 0.2
11,SPCI,≤ 0.2
12,IWSR,≤ 0.2
13,GYDT,≤ 0.2
14,PAPP,≤ 0.2
15,CQLT,≤ 0.2
16,VPGC,≤ 0.2
17,NSLD,≤ 0.2
18,VWGI,≤ 0.2
19,NHHC,≤ 0.2
20,HNCF,≤ 0.2
21,AMRN,≤ 0.2
22,YHIS,≤ 0.2
23,GMFR,≤ 0.2
24,QYLM,≤ 0.2
25,CMTA,≤ 0.2

row,Variant,one-hybrid fitness for binding parS DNA
1,EHTM,≤ 0.2
2,GQVV,≤ 0.2
3,NPYS,≤ 0.2
4,HARI,≤ 0.2
5,PPDV,≤ 0.2
6,RPST,≤ 0.2
7,TYSG,≤ 0.2
8,VDTC,≤ 0.2
9,DDTC,≤ 0.2
10,KRNR,≤ 0.2
11,VITR,≤ 0.2
12,PKMQ,≤ 0.2
13,YTQF,≤ 0.2
14,ICAR,≤ 0.2
15,VMYE,≤ 0.2
16,QQEF,≤ 0.2
17,NECG,≤ 0.2
18,NLHL,≤ 0.2
19,MNMY,≤ 0.2
20,SHTI,≤ 0.2
21,VSGQ,≤ 0.2
22,RCDV,≤ 0.2
23,TEST,≤ 0.2

# — a collection of fitness landscapes (doi:10.1016/j.celrep.2020.107928)
